The supplement of paper PMC9446081
In all, about 39,000 compounds went through this assay and about 220 (0.56%) showed activity. The list shows a part of the results.

test system: Escherichia coli K-12 BW25113; test: relative growth (OD600 normalised to plate interquartile mean) (fraction); higher = less growth inhibition, active = 0.2 or less; details: 50 µM; LB; incubation time: overnight (16-24 h)
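Further: static incubation at 37 °C against the wild-type strain, values averaged over two biological replicates.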

Row | Structure (SMILES) | relative growth
1 | C[C@@H]1CN([C@H](C)CO)C(=O)c2cc(N(C)C)ccc2O[C@@H](C)CCCCO[C@H]1CN(C)C(=O)Nc1cccc2ccccc12 | inactive: 1.03
2 | O=c1cc(-c2ccccc2)sc2c1ccc1ccccc12 | inactive: 1.05
3 | CN1CCN(C(=O)C[C@@H]2C[C@H]3c4cc(NC(=O)c5ccc6c(c5)OCO6)ccc4O[C@H]3[C@H](CO)O2)CC1 | inactive: 1.01
4 | CC=Cc1ccc2n(c1=O)C[C@H]1[C@H](CO)[C@@H](C(=O)NCCC)[C@@H]2N1S(=O)(=O)c1cn(C)cn1 | inactive: 1.01
5 | CO[C@H]1CN(C)C(=O)c2cc(NC(=O)Nc3cccc(F)c3)ccc2OC[C@@H](C)N(C(=O)Nc2c(C)noc2C)C[C@@H]1C | inactive: 0.981
6 | C[C@H]1CCCCO[C@H](CN(C)Cc2ccc(C(F)(F)F)cc2)[C@@H](C)CN([C@@H](C)CO)C(=O)c2cc(NC(=O)CCC(F)(F)F)ccc2O1 | inactive: 1.04
7 | CN(C)CCCNC(=O)C[C@H]1CC[C@@H](NS(=O)(=O)c2ccccc2)[C@H](CO)O1 | inactive: 1.02
8 | O=C(C[C@@H]1CC[C@@H]2[C@H](COC[C@H](O)CN2S(=O)(=O)c2ccccc2Cl)O1)NCc1ccccc1Cl | inactive: 1
9 | C[C@H]1CN([C@@H](C)CO)C(=O)CCCn2nncc2CO[C@H]1CN(C)C(=O)Nc1ccc2c(c1)OCO2 | inactive: 1.01
10 | O=C(C[C@@H]1CC[C@@H]2[C@H](COC[C@H](O)CN2S(=O)(=O)c2ccc(F)cc2)O1)N[C@@H]1CCN(Cc2ccccc2)C1 | inactive: 0.989
11 | C[C@H](CO)N1C[C@H](C)[C@H](CN(C)C(=O)C2CC2)OCc2cnnn2CCCC1=O | inactive: 0.98
12 | C[C@H]1CN([C@@H](C)CO)C(=O)c2cc(NC(=O)CCCN(C)C)ccc2O[C@H]1CN(C)Cc1ccc(C(=O)O)cc1 | inactive: 0.956
13 | CO[C@H]1CN(C)C(=O)c2cc(NC(=O)Nc3ccc(Cl)cc3)ccc2OC[C@H](C)N(C(=O)Nc2c(C)noc2C)C[C@H]1C | inactive: 0.992
14 | C[C@H](CO)N1C[C@H](C)[C@H](CN(C)S(=O)(=O)c2ccccc2)Oc2ccc(NC(=O)CCCN(C)C)cc2C1=O | inactive: 1.01
15 | C[C@H](O)C#Cc1ccc2c(c1)O[C@H](CN(C)C(=O)Nc1ccccc1)[C@@H](C)CN([C@@H](C)CO)S2(=O)=O | inactive: 1
16 | Cc1noc(C)c1NC(=O)Nc1cccc2c1O[C@H](CN(C)Cc1ccc(Cl)c(Cl)c1)[C@@H](C)CN([C@@H](C)CO)C2=O | inactive: 0.992
17 | C[C@@H]1CN([C@@H](C)CO)C(=O)c2cc(NC(=O)Cc3ccccc3)ccc2O[C@H]1CN(C)Cc1ccc(C(=O)Nc2ccccc2N)cc1 | inactive: 1.01
18 | C[C@@H]1CN([C@@H](C)CO)C(=O)c2cc(NC(=O)c3ccncc3)ccc2O[C@@H](C)CCCCO[C@@H]1CN(C)S(=O)(=O)c1ccc(Cl)cc1 | inactive: 1.09
19 | Cc1noc(C)c1S(=O)(=O)Nc1cccc2c1O[C@H](CN(C)Cc1ccc(Oc3ccccc3)cc1)[C@H](C)CN([C@H](C)CO)C2=O | inactive: 1.01
20 | C[C@@H]1CN([C@H](C)CO)C(=O)c2cc(NS(=O)(=O)c3ccc(F)cc3)ccc2O[C@H]1CN(C)S(=O)(=O)c1cccs1 | inactive: 1

Row | Structure (SMILES) | relative growth
21 | NCCN1CCC(c2cccs2)CC1 | inactive: 1.03
22 | C[C@@H]1CCCCO[C@H](CN(C)C(=O)C2CCCCC2)[C@@H](C)CN([C@@H](C)CO)C(=O)c2cc(NS(=O)(=O)c3ccccc3)ccc2O1 | inactive: 0.976
23 | C[C@@H]1CCCCO[C@@H](CN(C)Cc2ccc(C(F)(F)F)cc2)[C@@H](C)CN([C@H](C)CO)C(=O)c2cc(NC(=O)Nc3ccc(F)cc3)ccc2O1 | inactive: 1
24 | O=C(C1=C[C@@H](c2csc3ccccc23)C[C@@H](OCc2ccc(CO)cc2)O1)N1CCN(Cc2ccc3c(c2)OCO3)CC1 | inactive: 1.02
25 | CN(C)C(=O)[C@H]1C[C@@H]2CCN(S(C)(=O)=O)C[C@H]2O1 | inactive: 0.988
26 | CCCNC(=O)N[C@@H]1C=C[C@H](CC(=O)N2CCN(C)CC2)O[C@@H]1CO | inactive: 0.989
27 | COc1ccccc1CNC(=O)C[C@H]1C[C@@H]2c3cc(NC(=O)c4ccc5c(c4)OCO5)ccc3O[C@@H]2[C@H](CO)O1 | inactive: 1
28 | COC(=O)C[C@@H]1C=C[C@@H](N)[C@H](CO)O1 | inactive: 0.989
29 | COCC#Cc1ccc([C@H]2[C@@H](CO)N3C(=O)CN(C(=O)C4CCOCC4)C[C@@H]23)cc1 | inactive: 0.986
30 | O=C(C[C@@H]1C[C@@H]2c3cc(NS(=O)(=O)c4ccc(F)cc4)ccc3O[C@@H]2[C@H](CO)O1)NCc1ccc(Oc2ccccc2)cc1 | inactive: 1.01
31 | O=C(C[C@H]1C[C@@H]2c3cc(NS(=O)(=O)c4ccc(F)cc4)ccc3O[C@@H]2[C@H](CO)O1)NCCN1CCCCC1 | inactive: 0.981
32 | CC(O)(P(=O)([O-])O)P(=O)([O-])O.[Na+].[Na+] | inactive: 0.973
33 | COC(=O)[C@@]12OC[C@]34[C@H]([C@@H](O)[C@@H]1O)[C@@]1(C)CC(=O)C(=O)[C@H](C)[C@@H]1C[C@H]3OC(=O)[C@H](OC(=O)/C=C(\C)C(C)C)[C@@H]24 | inactive: 0.974
34 | Cl.N=C(N)NC(=N)N1CCOCC1 | inactive: 0.963
35 | CC(C)NC(=O)Nc1ccc2c(c1)C(=O)N([C@@H](C)CO)C[C@@H](C)[C@H](CN(C)S(C)(=O)=O)OCCCC[C@@H](C)O2 | inactive: 1.01
36 | CC(C)NC(=O)N(C)C[C@H]1OCCCC[C@H](C)Oc2ccc(NS(C)(=O)=O)cc2C(=O)N([C@@H](C)CO)C[C@H]1C | inactive: 0.972
37 | O=C(O)c1cc2n(n1)CCC2 | inactive: 1.03
38 | C[C@@H]1CCCCO[C@H](CN(C)C(=O)CCCN(C)C)[C@@H](C)CN([C@H](C)CO)C(=O)c2cc(NC(=O)Nc3ccc(F)cc3)ccc2O1 | inactive: 0.962
39 | O=C(C[C@H]1C=C[C@@H](NC(=O)CN2CCOCC2)[C@@H](CO)O1)NCCc1ccccc1 | inactive: 1.02
40 | C=CCOC(=O)[C@H]1[C@@H]2C(=O)O[C@@H](c3ccccc3)[C@@H](c3ccccc3)N2[C@@H](c2ccc(OCCOC(=O)[C@@H]3C[C@@H]4C(=O)N[C@@H](Cc5ccccc5)C(=O)N4[C@@H]3c3ccc(O)cc3)cc2)[C@]12C(=O)Nc1ccc(I)cc12 | inactive: 1.11

Row | Structure (SMILES) | relative growth
41 | C[C@@H]1CN([C@@H](C)CO)C(=O)c2cc(NC(=O)Nc3ccc(C(F)(F)F)cc3)ccc2O[C@@H](C)CCCCO[C@@H]1CN(C)C(=O)Nc1cccc2ccccc12 | inactive: 1.06
42 | Cc1noc(C)c1S(=O)(=O)N(C)C[C@@H]1Oc2ccc(NC(=O)NC3CCCCC3)cc2CC(=O)N([C@@H](C)CO)C[C@H]1C | inactive: 0.991
43 | C[C@@H]1CN([C@H](C)CO)C(=O)c2cccc(NC(=O)NC3CCCCC3)c2O[C@@H]1CN(C)Cc1ccc(-c2ccccc2)cc1 | inactive: 0.951
44 | C[C@H]1CN([C@@H](C)CO)C(=O)c2cc(NC(=O)Cn3cnnn3)ccc2O[C@H]1CN(C)S(C)(=O)=O | inactive: 1.01
45 | CCCN(C)C[C@H]1OCCCC[C@H](C)Oc2ccc(NC(=O)Nc3ccc(C(F)(F)F)cc3)cc2C(=O)N([C@@H](C)CO)C[C@H]1C | inactive: 0.861
46 | C[C@@H]1CN([C@H](C)CO)C(=O)c2cc(C#Cc3cccnc3)cnc2O[C@H]1CN(C)Cc1ccc(F)cc1 | inactive: 0.998
47 | COc1ccc(CN(C)C[C@@H]2OCCCC[C@H](C)Oc3ccc(NC(=O)Nc4ccc5c(c4)OCO5)cc3C(=O)N([C@@H](C)CO)C[C@H]2C)cc1 | inactive: 0.984
48 | C[C@H](CO)N1C[C@H](C)[C@@H](CN(C)S(=O)(=O)c2cn(C)cn2)Oc2ccc(NC(=O)NC3CCCCC3)cc2C1=O | inactive: 0.996
49 | COc1ccc(NC(=O)Nc2cccc3c2O[C@H](CN(C)S(=O)(=O)c2cn(C)cn2)[C@@H](C)CN([C@H](C)CO)C3=O)cc1 | inactive: 1.01
50 | Cc1noc(C)c1NC(=O)Nc1cccc2c1O[C@@H](CN(C)C(=O)Nc1ccc(C(F)(F)F)cc1)[C@@H](C)CN([C@H](C)CO)C2=O | inactive: 0.98
51 | O=C(C1=C[C@H](C2CC2)C[C@H](OCc2ccc(CO)cc2)O1)N1CCN(Cc2ccc3c(c2)OCO3)CC1 | inactive: 0.991
52 | C[C@H]1CN([C@@H](C)CO)C(=O)Cc2cc(NC(=O)Nc3ccc(C(F)(F)F)cc3)ccc2O[C@H]1CN(C)C(=O)Nc1ccccc1 | inactive: 0.997
53 | C[C@H](CO)N1C[C@H](C)[C@@H](CN(C)Cc2ccc(C(=O)Nc3ccccc3N)cc2)Oc2ccc(NC(=O)Cn3cnnn3)cc2C1=O | inactive: 0.983
54 | C[C@@H]1CN([C@H](C)CO)C(=O)c2cc(C3=CCCC3)cnc2O[C@H]1CN(C)C(=O)c1ccc2c(c1)OCO2 | inactive: 1.03
55 | O=C1NCCN1c1cccnc1 | inactive: 1.01
56 | O=C(C[C@@H]1CC[C@H]2[C@@H](COC[C@H](O)CN2S(=O)(=O)c2cccc(F)c2)O1)NCc1ccc(Cl)c(Cl)c1 | inactive: 0.995
57 | C[C@H]1CCCCO[C@@H](CN(C)S(=O)(=O)c2ccccc2)[C@@H](C)CN([C@@H](C)CO)C(=O)c2cc(NC(=O)C3CCCCC3)ccc2O1 | inactive: 1.02
58 | C[C@@H]1CN([C@@H](C)CO)C(=O)Cc2cc(NS(=O)(=O)c3ccccc3)ccc2O[C@H]1CN(C)S(=O)(=O)c1cccs1 | inactive: 0.993
59 | COc1ccc2c3c(n(c2c1)C)[C@H](CO)N(C[C@]13CCN(CC1)Cc1ccncc1)C(=O)CN1CCOCC1 | inactive: 0.995
